{
  "source": "PubChem BioAssay AID686978",
  "about": "(National Center for Advancing Translational Sciences (NCATS), 2013)",
  "note": "Values joined by “and” are separate entries in the source; they are usually repeats but may differ in a detail not shown here. Equal values may be shown once. Screen size: about 420,000 compounds; about 64,000 (15%) were called active. Inconclusive means that the source gave no clear call. Such entries were picked first, then a sample of the others. Calls follow the shape of the dose curve; as a rule, active = well fitted inhibition curve with a large enough effect; inconclusive = small, poorly fitted or top-dose-only effect; inactive = flat fitted curve, though single readings scatter. Potencies of inconclusive entries are doubtful fits and often do not repeat.",
  "data": [
    {"assay": "qHTS for Inhibitors of human tyrosyl-DNA phosphodiesterase 1 (TDP1): qHTS in cells in absence of CPT; also: nearly all actives have a fitted effect of over 55% in size; also: potency is read from the fitted curve at half-maximal effect; tags tell the direction and shape of the fitted curve; as to activity change, negative = growth inhibition: % is scaled to controls: 0 for no effect and ±100 for the full control effect", "settings": "DT40 Tdp1-/- hTDP1 cells, no CPT, ATP luminescence, 48 h; activity change, negative = growth inhibition: at 46.2 µM (top of the series)", "procedure,_shortened": "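Compound effects on proliferation are scored in DT40 Tdp1-/-;hTDP1 cells in the absence of CPT. ATP levels (CellTiter-Glo luminescence) are recorded after a ≥48 hr, 37 °C incubation.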", "values": [
      {"molecule": "CSc1ccc(C2C(C#N)=C(N)N(c3ccccc3)C3=C2C(=O)CCC3)cc1", "note": "(configuration not stated)", "Potency": "inactive"},
      {"molecule": "CC(CNS(=O)(=O)c1ccc2c(c1)NC(=O)CCS2)c1ccccc1", "note": "(configuration not stated)", "Potency": "inactive"},
      {"molecule": "COc1ccc2nc(NC(=O)C3CCN(S(=O)(=O)c4cnc[nH]4)CC3)sc2c1", "Potency": "inactive"},
      {"molecule": "Cc1ccc2c(c1)[C@H]1[C@H](CO2)[C@H](c2ccccc2)[C@]2(C)C(=O)NCC(=O)N12", "Potency": "inactive"},
      {"molecule": "COc1ccc(/C=N/NC(=O)c2nnn(-c3nonc3N)c2CN(C)c2ccccc2)cc1", "Potency": "inconclusive: 14.6 µM [inhibitor, partial curve]"},
      {"molecule": "Cc1ccccc1OCC(=O)N/N=C/c1ccc(Sc2nc3ccccc3s2)o1", "Potency": "active: 16.4 µM"},
      {"molecule": "CC(C)(C)c1csc(NC(=O)c2ccc(Cl)s2)n1", "Potency": "inconclusive: 29.1 µM [inhibitor, single point]"},
      {"molecule": "Cn1c(SCc2cccc(Br)c2)nnc1-c1ccncc1", "Potency": "inactive"},
      {"molecule": "Cc1onc(-c2ccccc2Cl)c1C(N)=O", "Potency": "inactive"},
      {"molecule": "CCn1c(=O)c(C(=O)Nc2ccc(C)cc2)c(O)c2ccccc21", "Potency": "inconclusive: 18.4 µM [inhibitor, single point]"},
      {"molecule": "COC(=O)C12CCC3(SCCS3)C(C(=O)OC)(CCC13SCCS3)C2", "Potency": "inconclusive: 10.3 µM [inhibitor, partial curve]"},
      {"molecule": "COc1ccc(/C=C/C(=O)OCC(=O)NC2CCCC2)c(OC)c1", "Potency": "inconclusive: 29.1 µM [inhibitor, single point]"},
      {"molecule": "CC1CCN(c2ccc(-c3cccs3)nn2)CC1", "Potency": "active: 10.3 µM"},
      {"molecule": "Cc1cccc(NS(=O)(=O)c2ccc3c(c2)n(C)c(=O)n3C)c1C", "Potency": "inconclusive: 29.1 µM [inhibitor, single point]"},
      {"molecule": "O=C(OCC(=O)N(C1CCCCC1)C1CCCCC1)c1ccc(O)cc1", "Potency": "inconclusive: 18.4 µM [inhibitor, single point]"},
      {"molecule": "C[C@@H]1CC=C[C@@H]2[C@H]1C(=O)N(Cc1ccccc1)[C@H]2c1ccccc1Br", "Potency": "active: 16.4 µM"},
      {"molecule": "COc1ccc(NC(=O)CN2CCCN(Cc3ccccc3)S2(=O)=O)cc1", "Potency": "inconclusive: 23.1 µM [inhibitor, single point]"},
      {"molecule": "Cc1ccc(NC(=O)C2CCN(S(=O)(=O)c3ccc4c(c3)CCCC(=O)N4)CC2)c(Br)c1", "Potency": "inactive and inconclusive: 29.1 µM [inhibitor, single point]"},
      {"molecule": "Cc1ccccc1N1C(=O)Cc2ccccc2C1=O", "Potency": "inconclusive: 25.9 µM [inhibitor, single point]"},
      {"molecule": "COCCCNC(=O)CSc1nc2cc(S(=O)(=O)N3CCCCC3)ccc2o1", "Potency": "inactive"},
      {"molecule": "O=C(c1ccco1)N1CCN(C(=O)c2cccs2)CC1", "Potency": "inactive"},
      {"molecule": "O=C(CCNS(=O)(=O)c1ccc(Br)cc1)NCc1ccc2c(c1)OCO2", "Potency": "inconclusive: 16.4 µM [inhibitor, partial curve]"},
      {"molecule": "N#CCc1c(C#N)c(N)nc(N2CCN(S(=O)(=O)c3ccccc3F)CC2)c1C#N", "Potency": "inconclusive: 23.1 µM [inhibitor, single point]"},
      {"molecule": "Cc1cc(C)c(S(=O)(=O)N2CCN(C(=O)CC(C)n3nc(C)nc3C)CC2)c(C)c1", "note": "(configuration not stated)", "Potency": "inactive"},
      {"molecule": "CCc1nnc(NC(=O)CSc2nnc(-c3ccccc3OC)n2-c2ccc(C)cc2)s1", "Potency": "inconclusive: 16.4 µM [inhibitor, single point]"},
      {"molecule": "Cn1c(COc2ccccc2)nnc1SCC(=O)c1cccc([N+](=O)[O-])c1", "Potency": "inconclusive: 29.1 µM [inhibitor, single point]"},
      {"molecule": "COc1cc(=O)n2c(c1C(=O)NCc1ccco1)CCN(Cc1ccc(F)cc1Cl)CC2", "Potency": "active: 2.91 µM"},
      {"molecule": "COc1cccc(CN2CCC(C(=O)N3CCN(c4ccccc4F)CC3)CC2)c1OC", "Potency": "inactive"},
      {"molecule": "COc1cc(C(=O)Nc2oc(-c3ccccc3)c(-c3ccccc3)c2C#N)cc(OC)c1OC", "Potency": "inconclusive: 29.1 µM [inhibitor, single point]"},
      {"molecule": "COc1cc2c(cc1OC)CN(CCC(=O)c1ccc(Br)cc1)CC2", "Potency": "active: 1.64 µM"},
      {"molecule": "COc1cccc(-c2cc(C(=O)NCC3CCCO3)c3ccccc3n2)c1", "note": "(configuration not stated)", "Potency": "active: 18.4 µM"},
      {"molecule": "O=C1CS/C(=N/N=C/c2c[nH]c3ccccc23)N1", "Potency": "inactive"},
      {"molecule": "COC(=O)c1ccc(-c2cc(CC3(C(=O)OC)CCN(C(=O)OC(C)(C)C)CC3)on2)cc1", "Potency": "inconclusive: 29.1 µM [inhibitor, single point]"},
      {"molecule": "COc1ccc2c(c1)C1=NN(/C(C)=C/C(C)=O)C(c3ccc(F)cc3)C1CC2", "note": "(configuration not stated)", "Potency": "inconclusive: 20.6 µM [inhibitor, single point]"},
      {"molecule": "N#Cc1ccc(CN2CCN(C(=O)CC(NC(=O)c3ccccc3)c3ccccc3)CC2)cc1", "note": "(configuration not stated)", "Potency": "inconclusive: 20.6 µM [inhibitor, partial curve]"},
      {"molecule": "CCOC(=O)N1CCN(S(=O)(=O)c2ccc(C(=O)N(CCCN(C)C)c3nc4c(F)cc(F)cc4s3)cc2)CC1", "Potency": "inactive"},
      {"molecule": "COc1cccc(/C=N/n2c(C)nc3ccccc3c2=O)c1O", "Potency": "inactive"},
      {"molecule": "Cc1ccc2nc(SCC(=O)Nc3cccnc3Cl)[nH]c2c1", "Potency": "inactive"},
      {"molecule": "CCOC(=O)N1CCN(C(=O)CSc2ccc(-c3ccccc3OC)nn2)CC1", "Potency": "inconclusive: 18.4 µM [inhibitor, single point]"},
      {"molecule": "N#Cc1ccc(C#Cc2ccc3oc4ccccc4c(=O)c3c2)cc1", "Potency": "inconclusive: 11.6 µM [inhibitor, partial curve]"},
      {"molecule": "CCN1CCN(c2ccc(S(=O)(=O)N3CCCCC3)cc2NC(=O)/C=C/c2cc(OC)ccc2OC)CC1", "Potency": "inconclusive: 16.4 µM [inhibitor, single point]"},
      {"molecule": "COc1ccccc1N(C)S(=O)(=O)c1ccc(C(=O)Nc2cccc(S(=O)(=O)N3CCOCC3)c2)cc1", "Potency": "active: 10.3 µM"},
      {"molecule": "CCOC(=O)C1CCN(C(=O)CN(c2ccc(Cl)c(C(F)(F)F)c2)S(C)(=O)=O)CC1", "Potency": "inconclusive: 23.1 µM [inhibitor, partial curve, poor fit]"},
      {"molecule": "CC(C)CNC(=O)C(=O)NCC1CCCN1S(=O)(=O)c1cccs1", "note": "(configuration not stated)", "Potency": "inactive"},
      {"molecule": "COc1cc(CCN2C(=O)c3cccc4cccc(c34)C2=O)c(S(=O)(=O)NCCO)cc1OC", "Potency": "inconclusive: 9.2 µM [inhibitor, partial curve, poor fit]"},
      {"molecule": "CNc1c(C(=O)O)ccc2c1C(=O)c1ccccc1C2=O", "Potency": "inconclusive: 18.4 µM [inhibitor, partial curve]"},
      {"molecule": "Cc1nc(SCCOc2ccccc2)[nH]c(=O)c1Cc1ccccc1", "Potency": "inconclusive: 23.1 µM [inhibitor, partial curve, poor fit]"},
      {"molecule": "CCC1CCCCN1S(=O)(=O)c1ccc2c(c1)CCN2C(=O)C1CCC1", "note": "(configuration not stated)", "Potency": "inconclusive: 31.6 µM [inhibitor, single point]"},
      {"molecule": "O=C(N/N=C/c1ccccn1)c1cc([N+](=O)[O-])cc([N+](=O)[O-])c1", "Potency": "active: 20.6 µM"},
      {"molecule": "Cc1cn([C@H]2C[C@H](O)[C@@H](/C=C/C(=O)NCCC(C)C)O2)c(=O)[nH]c1=O", "Potency": "inactive"},
      {"molecule": "Cc1onc(-c2ccccc2Cl)c1C(=O)NC(=S)NCC(=O)c1ccccc1", "Potency": "inactive"},
      {"molecule": "CCCC(c1nnnn1CC1CCCO1)N1CCN(c2ccccc2)CC1", "note": "(configuration not stated)", "Potency": "inactive"},
      {"molecule": "COc1ccccc1N1CCN(c2ncc3c(n2)CCN(Cc2ccc(C)s2)C3)CC1", "Potency": "inconclusive: 29.1 µM [inhibitor, single point]"},
      {"molecule": "Cc1nnc(N)s1", "Potency": "inactive"},
      {"molecule": "COc1ccc(-c2nc3ccc(N4CCN(C)CC4)cc3c(=O)[nH]2)cc1", "Potency": "inconclusive: 29.1 µM [inhibitor, single point]"},
      {"molecule": "N=c1c2c(n(Cc3ccc(Br)cc3)c3c1CCC3)CCCC2", "Potency": "active: 0.517 µM"},
      {"molecule": "O=C(CCc1nc2sc3c(c2c(=O)[nH]1)CCCC3)NCC(=O)Nc1ccccc1Br", "Potency": "inconclusive: 29.1 µM [inhibitor, single point]"},
      {"molecule": "CN1CCN(NC(=S)Nc2ccc(Oc3ccccc3)cc2)CC1", "Potency": "inconclusive: 25.9 µM [inhibitor, partial curve]"},
      {"molecule": "Cc1onc(-c2ccc(Cl)cc2Cl)c1-c1csc(COc2ccccc2)n1", "Potency": "inconclusive: 10.3 µM [inhibitor, partial curve]"},
      {"molecule": "COc1ccccc1Nc1nnc(SCC(=O)c2c(N)n(C3CC3)c(=O)[nH]c2=O)s1", "Potency": "inactive"},
      {"molecule": "CNc1cncc(-c2cccc(C(=O)NC3CC3)c2)n1", "Potency": "inconclusive: 14.6 µM [inhibitor, partial curve]"},
      {"molecule": "Cn1c(SCC(=O)N/N=C/c2ccco2)nc2ccccc21", "Potency": "inactive"},
      {"molecule": "CCCCCOc1ccc(OC(=O)c2ccncc2)cc1", "Potency": "active: 13 µM"},
      {"molecule": "CCC(C)(C)NC(=O)C(c1ccc(OC)cc1)N(Cc1ccc(OC)cc1)C(=O)CCC(=O)Nc1cc(C)on1", "note": "(configuration not stated)", "Potency": "inconclusive: 29.1 µM [inhibitor, single point]"},
      {"molecule": "CCCCn1nnnc1C1(C)CCC(=O)N1CC(F)(F)F", "note": "(configuration not stated)", "Potency": "inactive"},
      {"molecule": "CCNC(=O)NC(=O)C(C)OC(=O)c1cc(S(=O)(=O)N2CCCCCC2)ccc1OC", "note": "(configuration not stated)", "Potency": "inconclusive: 15.8 µM [inhibitor, partial curve]"},
      {"molecule": "CN1CCN(C(=O)CN(c2cccc(Br)c2)S(=O)(=O)c2ccccc2)CC1", "Potency": "inactive"},
      {"molecule": "COc1ccccc1CN1CCCC(C(=O)N(C)Cc2ccccc2)C1", "note": "(configuration not stated)", "Potency": "inconclusive: 29.1 µM [inhibitor, single point]"},
      {"molecule": "CCOC(=O)c1cnc(Nc2nc3ccccc3o2)nc1CSc1ncccn1", "activity change, negative = growth inhibition": "inconclusive: -30.4% [inhibitor]"},
      {"molecule": "COc1ccccc1Nc1ccc(NS(=O)(=O)c2ccc(C(C)=O)cc2)cc1", "Potency": "active: 16.4 µM"},
      {"molecule": "COc1ccc(C(=O)C2CCCN(Cc3c(O)cccc3OC)C2)cc1OC", "note": "(configuration not stated)", "Potency": "active: 7.31 µM"},
      {"molecule": "COc1ccc(OCC(=O)Nc2ccc3c(c2)nc(CN2CCCC2)n3C)cc1", "Potency": "inconclusive: 25.9 µM [inhibitor, single point]"}
    ]}
  ]
}
